The supplement of paper PMC10126150
Sequences with one replicate were seen in a single cluster, so their values are uncertain.

Tested on: ATP
Experiment: switch fluorescence ratio, 500 uM ATP over buffer (Cy3 cluster intensity, sum of 5 cycles each) (fold (ratio)); higher = stronger signal-on switching upon ATP binding; sequences stand for … in TCGTCGGCAGCGTCAGATGTGTATAAGAGACAGTTTTTTTTTTTTTTTTTTTTTTTTT…TC
Settings: aptamer strand: ATP DNA aptamer (quencher-CACCTGGGGGAGTATTGCGGAGGAAGG + anchor), 100 nM annealed; ATP concentration: 500 uM; one replicate
Outline: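 Clusters with intensities outside 100-1000 RFU were excluded. The remaining Cy3-labelled switching-strand clusters on a modified Illumina MiSeq flow-cell had been annealed to 100 nM quencher-labelled ATP aptamer and imaged in selection buffer, then after 15 min with 500 uM ATP at 22 °C, for five cycles separated by NaOH stripping and re-annealing. The fluorescence ratio, averaged per switch-domain sequence, is each cluster's summed target-cycle Cy3 intensity over its summed buffer-cycle Cy3 intensity.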
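Also: ATP exposure 15 min at 22 °C before imaging.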

In the case of TTAACGCACC, the switch fluorescence ratio is reported as 1.79.
TAGGTTTGTT gave a switch fluorescence ratio of 0.936.
AGTAGTCAGG was tested, and the switch fluorescence ratio was 1.01.
For AGAATTCTTA, the switch fluorescence ratio was 0.983.
With CTATTTTGGA the switch fluorescence ratio was 0.957.
Work on ATCATTCTGT yielded a switch fluorescence ratio of 1.04.
Sequence CCGGTGTATT has a switch fluorescence ratio of 1.1.
Work on ATTGACGAAC yielded a switch fluorescence ratio of 1.41.
Sequence TGTAAGCCGT has a switch fluorescence ratio of 1.03.
TCCGGAAGCA was tested, and the switch fluorescence ratio was 1.03.
TCAGGATCAG was tested, and the switch fluorescence ratio was 0.971.
CGGTTGAGAC was tested, and the switch fluorescence ratio was 1.07.
Sequence TTTAAACATG has a switch fluorescence ratio of 1.06.
TGAGTCGCCA gave a switch fluorescence ratio of 0.978.
TGGGAACGCT showed a switch fluorescence ratio of 0.984.
Work on TGACATTATC yielded a switch fluorescence ratio of 1.07.
With ATCTACAGGA the switch fluorescence ratio was 1.01.
TTCGATAGAC gave a switch fluorescence ratio of 1.08.
Work on TCTGGGTCGG yielded a switch fluorescence ratio of 0.973.
For AGAATAGCTT, the switch fluorescence ratio was 1.01.
In the case of GATTAGGTT, the switch fluorescence ratio is reported as 1.05.
GTACTGTGTC gave a switch fluorescence ratio of 1.03.
Work on CACGCACTGA yielded a switch fluorescence ratio of 1.63.
ACTAAGTGAG gave a switch fluorescence ratio of 1.01.
Sequence GTGACTCCGG has a switch fluorescence ratio of 1.02.
TCTGGTTACC gave a switch fluorescence ratio of 0.988.
Work on CATTTTCCAT yielded a switch fluorescence ratio of 1.01.
TATAAGGCAA gave a switch fluorescence ratio of 1.06.
Sequence TACGGAAGAT has a switch fluorescence ratio of 1.08.
ATGAATCGTG was tested, and the switch fluorescence ratio was 1.
In the case of CACATGGGT, the switch fluorescence ratio is reported as 0.949.
TGGTTTAATC showed a switch fluorescence ratio of 1.05.
ACCTATTCCG was tested, and the switch fluorescence ratio was 1.2.
For CGTCGCAGTC, the switch fluorescence ratio was 1.6.
TGGCTTCTGT was tested, and the switch fluorescence ratio was 1.07.
ATTCAGAACG was tested, and the switch fluorescence ratio was 1.02.
With ACGCTTGACC the switch fluorescence ratio was 1.07.
TATCCCATTG was tested, and the switch fluorescence ratio was 0.986.
For CAGACAAGTG, the switch fluorescence ratio was 0.971.
Work on CGTATGGTTT yielded a switch fluorescence ratio of 0.965.
CAAATCCTGC showed a switch fluorescence ratio of 1.04.
In the case of TAGTGTGTGG, the switch fluorescence ratio is reported as 1.03.
Work on TATCGGGC yielded a switch fluorescence ratio of 0.984.
With TCTGCCACCA the switch fluorescence ratio was 1.01.
TCCGACAGAA showed a switch fluorescence ratio of 2.26.
Work on TTTTAAGGTT yielded a switch fluorescence ratio of 1.01.
For CTCGCCTGTG, the switch fluorescence ratio was 1.07.
For CCTGTTATAT, the switch fluorescence ratio was 1.03.
In the case of TTAGCAAGCT, the switch fluorescence ratio is reported as 1.11.
CTGAAAGT was tested, and the switch fluorescence ratio was 0.956.
GGCAATAACA gave a switch fluorescence ratio of 1.12.
Work on TAATCTGCTA yielded a switch fluorescence ratio of 1.1.
ATATCAAAAA showed a switch fluorescence ratio of 1.01.
Work on TGTGTAAGGA yielded a switch fluorescence ratio of 0.961.
GAACTGAACC showed a switch fluorescence ratio of 1.32.
With TGTGGATGGG the switch fluorescence ratio was 0.956.
With TACTGTATTC the switch fluorescence ratio was 1.17.
With TTATTAATGC the switch fluorescence ratio was 1.06.
TTCATGGCAC was tested, and the switch fluorescence ratio was 1.06.
In the case of TACTAGTTAA, the switch fluorescence ratio is reported as 0.989.
With TAATTCACTT the switch fluorescence ratio was 1.01.
With AACTTGAGTC the switch fluorescence ratio was 0.959.
Work on TATCCTGGGG yielded a switch fluorescence ratio of 1.03.
With ATCTGATTGG the switch fluorescence ratio was 1.01.
With TCGCGGAGGT the switch fluorescence ratio was 1.05.
TTGGGTTGAC was tested, and the switch fluorescence ratio was 1.
TCAATGGCGT was tested, and the switch fluorescence ratio was 0.986.
TGCGACACCC gave a switch fluorescence ratio of 1.15.
For CGGAATGATC, the switch fluorescence ratio was 1.24.
With CGCAATATTT the switch fluorescence ratio was 4.74.
CTGCTTTGTG gave a switch fluorescence ratio of 1.01.
GCTGCGGCG showed a switch fluorescence ratio of 0.979.
For GCATGAGGTT, the switch fluorescence ratio was 1.05.
TTGTGCAGGT was tested, and the switch fluorescence ratio was 1.03.
Work on CAAATATGAA yielded a switch fluorescence ratio of 0.974.
In the case of AAGCCCTAT, the switch fluorescence ratio is reported as 0.949.
Work on GGCAACGTAG yielded a switch fluorescence ratio of 0.995.
In the case of GAGTCGTGCT, the switch fluorescence ratio is reported as 0.993.
With TGACGCCTTG the switch fluorescence ratio was 0.989.
AACTGAAGAT gave a switch fluorescence ratio of 1.11.
For TCGTTAACCA, the switch fluorescence ratio was 1.03.
With AACGACAAGA the switch fluorescence ratio was 1.48.
CAATCCCAGG was tested, and the switch fluorescence ratio was 4.46.
In the case of CCTAGTGACG, the switch fluorescence ratio is reported as 0.943.
Work on TACGTTGATC yielded a switch fluorescence ratio of 1.03.
AACAAGGTTC was tested, and the switch fluorescence ratio was 1.02.
Sequence GAGAGTTACG has a switch fluorescence ratio of 0.974.
Work on TCCGGGTCGA yielded a switch fluorescence ratio of 1.03.
Sequence ACATCGGGTA has a switch fluorescence ratio of 0.994.
Sequence CGGAATCGA has a switch fluorescence ratio of 1.06.
With GCGTCGTGGG the switch fluorescence ratio was 1.01.
CTATAAGGCG was tested, and the switch fluorescence ratio was 0.982.
In the case of TTTAGCAGTC, the switch fluorescence ratio is reported as 1.02.
Work on TAGAATTCAA yielded a switch fluorescence ratio of 0.969.
GCCGCCGTGC showed a switch fluorescence ratio of 1.11.
In the case of CCGGACCAGG, the switch fluorescence ratio is reported as 1.79.
In the case of ATGTGCCGAA, the switch fluorescence ratio is reported as 1.01.
Work on CAGACAAT yielded a switch fluorescence ratio of 2.17.
CCAGATAGTT gave a switch fluorescence ratio of 0.964.
In the case of AGATTCCCCT, the switch fluorescence ratio is reported as 1.1.
In the case of CGAGTTACTG, the switch fluorescence ratio is reported as 1.03.
For AAAACCGGGC, the switch fluorescence ratio was 1.09.
With TTCACAACAA the switch fluorescence ratio was 1.06.
CGTTATTACC was tested, and the switch fluorescence ratio was 1.04.
Sequence TCAGCATTA has a switch fluorescence ratio of 1.22.
In the case of AGGGTCCGTG, the switch fluorescence ratio is reported as 0.972.
Work on GTTTACTAAT yielded a switch fluorescence ratio of 0.985.
For TGGGCATAAC, the switch fluorescence ratio was 0.992.
In the case of GGGATGGAGA, the switch fluorescence ratio is reported as 0.994.
Work on CTGACTTGTC yielded a switch fluorescence ratio of 1.
With CAGTCTACTA the switch fluorescence ratio was 1.05.
ACATGGACCT gave a switch fluorescence ratio of 1.28.
Sequence TCGATAGAGC has a switch fluorescence ratio of 0.998.
For AGTACGAATT, the switch fluorescence ratio was 1.
With TCTTAAACC the switch fluorescence ratio was 1.02.
Work on GGAGTTTTCA yielded a switch fluorescence ratio of 0.979.
CGTCTAATCT showed a switch fluorescence ratio of 1.05.
Sequence GGGGTTAGAC has a switch fluorescence ratio of 0.983.
TTGTTATATC gave a switch fluorescence ratio of 1.06.
Sequence CTCCATCGTA has a switch fluorescence ratio of 1.03.
CGCTATGTCC showed a switch fluorescence ratio of 1.27.
For GGCCACGAGT, the switch fluorescence ratio was 1.
Work on CAATCAAGTA yielded a switch fluorescence ratio of 1.03.
TAACGATTTT gave a switch fluorescence ratio of 1.1.
Work on TGATATCGTT yielded a switch fluorescence ratio of 1.02.
CAGGCCAGTC gave a switch fluorescence ratio of 1.05.
Sequence TCCCCGAGGT has a switch fluorescence ratio of 1.02.
For TGTATTAGCA, the switch fluorescence ratio was 0.976.
Work on TGCCAAATCC yielded a switch fluorescence ratio of 1.03.
Sequence ATGGGACCAA has a switch fluorescence ratio of 1.05.
In the case of TTGATAAAGA, the switch fluorescence ratio is reported as 1.02.
Sequence GTCTTGGT has a switch fluorescence ratio of 1.04.
Sequence AGACGATCAT has a switch fluorescence ratio of 1.07.
For GACTCTGCT, the switch fluorescence ratio was 1.08.
In the case of CCGGAAAGCC, the switch fluorescence ratio is reported as 1.02.
TTTGATGAAG showed a switch fluorescence ratio of 0.965.
Work on ACTCATTAGC yielded a switch fluorescence ratio of 1.02.
TCAGGAAGTA showed a switch fluorescence ratio of 1.01.
Sequence TCGCTTGTTT has a switch fluorescence ratio of 0.985.
Sequence TTATGTAATA has a switch fluorescence ratio of 1.12.
For GACTTACCCG, the switch fluorescence ratio was 1.18.
Sequence TTCGGGTTCA has a switch fluorescence ratio of 1.02.
Work on ATGTACATAC yielded a switch fluorescence ratio of 1.25.
Sequence CGTACCAACG has a switch fluorescence ratio of 1.06.
AACATCTTTA gave a switch fluorescence ratio of 1.01.
With TTCGCGATGC the switch fluorescence ratio was 3.24.
GATTAGTTAT showed a switch fluorescence ratio of 0.952.
Work on CGCCGTACAC yielded a switch fluorescence ratio of 1.29.
AAGGCAGTGC was tested, and the switch fluorescence ratio was 1.08.
CCCAATGTA was tested, and the switch fluorescence ratio was 1.06.
GTACTGGCTT gave a switch fluorescence ratio of 1.
For CCCTTCAGC, the switch fluorescence ratio was 1.05.
For TGCTGACAA, the switch fluorescence ratio was 0.965.
For TAAATGACGG, the switch fluorescence ratio was 0.981.
In the case of GTTCCTTAAC, the switch fluorescence ratio is reported as 1.02.
Sequence GCGCGTTGTC has a switch fluorescence ratio of 1.04.
CACCTCCGCC was tested, and the switch fluorescence ratio was 5.31.
CAGTGATGAT gave a switch fluorescence ratio of 1.
GACTTTATGC gave a switch fluorescence ratio of 1.01.
With TTAGGGCATA the switch fluorescence ratio was 1.06.
Work on CCAAGGTTTT yielded a switch fluorescence ratio of 0.989.
Work on TACCGAGCGA yielded a switch fluorescence ratio of 1.93.
With ATTAATATTG the switch fluorescence ratio was 0.978.
For TGGCGGCTT, the switch fluorescence ratio was 0.9.
CATGCGAGAA showed a switch fluorescence ratio of 0.997.
GTCTCCTCG gave a switch fluorescence ratio of 1.07.
GGACGTATTC showed a switch fluorescence ratio of 1.07.
In the case of TTTGTACACC, the switch fluorescence ratio is reported as 1.01.
AACATTCCTA showed a switch fluorescence ratio of 1.34.
Sequence CTATCTGGAA has a switch fluorescence ratio of 1.
Sequence CTAGCTA has a switch fluorescence ratio of 1.04.
Work on ATAAGTTTGC yielded a switch fluorescence ratio of 0.922.
TTGTGCTATC gave a switch fluorescence ratio of 1.11.
Sequence ACGTGTGAGG has a switch fluorescence ratio of 1.03.
For AACAATCGTG, the switch fluorescence ratio was 0.973.
Sequence CGAACACTTG has a switch fluorescence ratio of 0.991.
Work on ACGCGGTATA yielded a switch fluorescence ratio of 1.02.
In the case of TGGTGTGTGT, the switch fluorescence ratio is reported as 0.985.
GCTCTAGTCT showed a switch fluorescence ratio of 0.993.
AATGATCGAT was tested, and the switch fluorescence ratio was 1.03.
Work on TGGCTATTGG yielded a switch fluorescence ratio of 0.994.
With ATATAGTGCC the switch fluorescence ratio was 0.992.
For CCTTTTAACA, the switch fluorescence ratio was 1.01.
ATGGCGTG was tested, and the switch fluorescence ratio was 0.978.
AAGTCTAG was tested, and the switch fluorescence ratio was 0.987.
TATTAACGGG gave a switch fluorescence ratio of 1.03.
With CCGTCAATTG the switch fluorescence ratio was 2.04.
Sequence AGATCCTGGT has a switch fluorescence ratio of 1.05.
In the case of CACTAGACTA, the switch fluorescence ratio is reported as 1.02.
ATTGGAGCCG gave a switch fluorescence ratio of 1.04.
For TATTATTTCG, the switch fluorescence ratio was 0.987.
Sequence CAATCCCGGA has a switch fluorescence ratio of 1.
Work on GACTTTGACA yielded a switch fluorescence ratio of 1.06.
In the case of ATATTCGTCA, the switch fluorescence ratio is reported as 0.971.
For CGGGGGGCAA, the switch fluorescence ratio was 1.04.
GTGATCAGAT gave a switch fluorescence ratio of 0.957.
TAGGAATGGA gave a switch fluorescence ratio of 1.01.
TGGCACTTGC showed a switch fluorescence ratio of 1.01.
CAATCGTCCT was tested, and the switch fluorescence ratio was 0.996.
ATATCTGGAG showed a switch fluorescence ratio of 0.95.
GCTGTCGA was tested, and the switch fluorescence ratio was 1.02.
